# About 14,000 (4.5%) of roughly 310,000 compounds showed an effect of 50% or more. The effect is printed as a negative number. Some of the results follow.
# Molecular target: human ether-à-go-go-related gene (hERG) potassium channel (human, UniProt Q12809)
# Assay: primary screen, population patch clamp on CHO cells stably expressing hERG
# 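Also: peak tail current of the secondary pulse compared with the same well before compound.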
# human ether-à-go-go-related gene (hERG) potassium channel, sequence (Q12809 whole entry, looked up): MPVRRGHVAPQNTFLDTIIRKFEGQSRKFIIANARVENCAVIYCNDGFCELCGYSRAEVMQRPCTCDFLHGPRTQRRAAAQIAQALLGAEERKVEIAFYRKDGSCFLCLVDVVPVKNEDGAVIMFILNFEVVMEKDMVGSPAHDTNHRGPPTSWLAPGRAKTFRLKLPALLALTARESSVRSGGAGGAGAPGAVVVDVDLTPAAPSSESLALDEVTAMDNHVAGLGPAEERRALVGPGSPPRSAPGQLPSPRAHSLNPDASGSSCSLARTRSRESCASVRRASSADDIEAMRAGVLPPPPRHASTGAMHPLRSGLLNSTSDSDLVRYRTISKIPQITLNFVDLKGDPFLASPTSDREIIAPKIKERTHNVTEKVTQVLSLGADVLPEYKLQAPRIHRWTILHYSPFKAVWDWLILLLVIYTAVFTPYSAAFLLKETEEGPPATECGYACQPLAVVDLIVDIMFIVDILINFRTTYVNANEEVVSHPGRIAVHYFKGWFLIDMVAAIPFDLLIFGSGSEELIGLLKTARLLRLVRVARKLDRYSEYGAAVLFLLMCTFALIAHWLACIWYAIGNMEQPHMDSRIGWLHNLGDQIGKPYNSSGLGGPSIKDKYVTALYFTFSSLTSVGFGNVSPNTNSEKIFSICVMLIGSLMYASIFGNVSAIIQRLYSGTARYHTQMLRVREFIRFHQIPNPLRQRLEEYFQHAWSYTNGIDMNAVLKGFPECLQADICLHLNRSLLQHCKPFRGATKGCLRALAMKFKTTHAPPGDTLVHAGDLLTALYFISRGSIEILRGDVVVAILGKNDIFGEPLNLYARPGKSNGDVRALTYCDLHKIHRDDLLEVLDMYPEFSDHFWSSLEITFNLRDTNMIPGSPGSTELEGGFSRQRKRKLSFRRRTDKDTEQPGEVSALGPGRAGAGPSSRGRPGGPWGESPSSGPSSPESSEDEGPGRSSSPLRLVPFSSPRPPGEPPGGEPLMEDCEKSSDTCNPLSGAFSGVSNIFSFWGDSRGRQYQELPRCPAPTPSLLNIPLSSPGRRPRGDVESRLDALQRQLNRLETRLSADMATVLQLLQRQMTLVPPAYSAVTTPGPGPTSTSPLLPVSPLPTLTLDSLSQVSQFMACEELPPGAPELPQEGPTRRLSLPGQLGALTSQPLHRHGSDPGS
row,SMILES,"hERG current change (%, negative = inhibition) at 10uM [%]"
1,CCOc1ccc(NC(=O)C(CC(=O)O)Cc2ccc(C)cc2)cc1 (centres unmarked),12.2
2,COc1ccc(/C=C/c2nnc(NC(C)=O)s2)cc1,7.96
3,O=C(N/N=C/c1cccnc1)c1ccc(O)cc1,13.4
4,CCCN(CC(=O)Nc1ccccc1OC)C(=O)CN1C(=O)NC2(CCCCC2)C1=O,-0.388
5,CCN(CC)c1ccc(N2C(=O)/C(=C/c3cccs3)SC2=S)cc1,11.7
6,COc1cccc(CNC(=O)C2CCN(S(=O)(=O)c3ccc4c(c3)OCCO4)CC2)c1,12.7
7,CCC(=O)Nc1nnc(S(=O)(=O)N(C)c2ccccc2)s1,26.3
8,O=C(c1cnc2n(c1=O)CCS2)N(C1CCCCC1)C1CCCCC1,-7.58
9,COc1ccc(C(=O)NN=C(Cc2ccccc2)Cc2ccccc2)cc1OC,4.5
10,CCn1ncc(Br)c1C(=O)Nc1c(C)nn(Cc2c(F)c(F)c(F)c(F)c2F)c1C,7.03
11,Cc1cc(C)cc(C(=O)N2CC(=O)Nc3ccccc32)c1,-17.3
12,Cc1cc(NC(NC(=O)c2ccco2)(C(F)(F)F)C(F)(F)F)no1,-6.53
13,CC1CCc2[nH]c3ccc(C(=O)NCCCOC(C)C)cc3c2C1 (centres unmarked),2.26
14,COc1ccc(NC(=O)Nc2c(O)ccc3ccccc23)cc1,3.94
15,O=C(c1cc(-c2ccc3c(c2)OCO3)on1)N1CCOCC1,6.17
16,C=CCn1c(COc2ccccc2F)nnc1SCC(=O)Nc1cc2oc3ccccc3c2cc1OC,2.94
17,N/C(CCS(=O)(=O)c1ccc(Cl)cc1)=N\OC(=O)c1ccc(Cl)cc1,3.44
18,Cc1ccc(Nc2nc(NCCO)c3ccccc3n2)cc1C.Cl,-52.4
19,CN1C(=O)NC(c2cccc(F)c2)C2=C1CC(C)(C)CC2=O (centres unmarked),15.3

row,SMILES,"hERG current change (%, negative = inhibition) at 10uM [%]"
1,COc1ccc2nc(SC)c(C#N)cc2c1,15.1
2,Cc1ccc(NC(=O)Nc2cccc([N+](=O)[O-])c2)nc1,23.8
3,CC(=O)c1cccc(NC(=O)COC(=O)c2cccs2)c1,17.2
4,COc1ccc(/C=N/n2cncn2)cc1CSc1ccccn1,-14
5,Cc1cccc(N(CC(=O)NC(C)(C)C)C(=O)CS(=O)CC(=O)Nc2ccc(F)cc2)c1 (centres unmarked),27.5
6,CCOc1cc(/C=C(/NC(C)=O)C(=O)O)cc(Cl)c1OCc1cccc(Br)c1,6.11
7,CCOC(=O)[C@@H]1[C@H]2COc3ccccc3[C@H]2N2C(=O)N(c3ccc(Cl)cc3)C(=O)[C@]12C,2.73
8,O=C(Nc1nnc(SCC(=O)N2CCCc3ccccc32)s1)c1ccccc1,0.924
9,CN(C)CCOC(=O)c1ccc2c(c1)S(=O)(=O)c1ccccc1C2=O.Cl,-6.3
10,CC1(C)OC(=O)C(=CNC(CCC(N)=O)C(=O)O)C(=O)O1 (centres unmarked),7.62
11,CCCn1c2c(c(O)c(C(=O)Nc3nc4ccccc4s3)c1=O)CCCC2,43.8
12,COc1ccc(-c2nc(N)n[nH]2)cc1OC,18.9
13,c1ccc(C2(CN3CCNC[C@H]3Cc3cccc4ccccc34)CC2)cc1,-8.52
14,CCOC(=O)N1CCC(n2c(SCC(=O)NCc3ccccc3)nc3ccccc3c2=O)CC1,-46.6
15,CC1CC1C(=O)OCC(=O)NC(=O)c1ccccc1 (centres unmarked),6.93
16,COc1cccc(CN2CCNC(=O)C2CC(=O)NCCn2cccn2)c1OC (centres unmarked),8.5
17,Cc1cccc(NC(=O)CSc2nc3[nH]c(=O)cc(O)c3s2)c1,-0.789
18,COc1ccc(CNC(=O)CS(=O)Cc2nc(-c3ccc(C)cc3)oc2C)cc1 (centres unmarked),-20.1
19,COc1cc(S(=O)(=O)N2CCCCC2)ccc1NC(=O)Cc1ccccc1,12.3

row,SMILES,"hERG current change (%, negative = inhibition) at 10uM [%]"
1,CC(C)[C@H]1C(=O)Nc2ccccc2N1C(=O)N[C@@H](Cc1ccccc1)C(=O)N[C@H](C(=O)O)c1ccccc1,17.7
2,O=C(NCCc1ccccc1Cl)C1CCC(=O)N(C2CCCCCC2)C1 (centres unmarked),-6.22
3,CCC(Cc1c(I)cc(I)c(N)c1I)C(=O)O (centres unmarked),-0.155
4,COc1ccc(NC(=S)N2CCC(NC(=O)c3cccc(F)c3)CC2)cc1,-16.7
5,CCCC(=O)NC(C)C(c1cccs1)N1CCN(C)CC1 (centres unmarked),0.74
6,COc1ccc(NC(=O)c2cc(-c3ccccc3)on2)cc1,15.9
7,COCCNC(=O)c1ccccc1-c1nc(-c2ccccc2Cl)no1,-9.09
8,COCCn1c(=O)[nH]c2cc(C(=O)N3CCN(c4ccccc4OC)CC3)ccc2c1=O,5.76
9,Cc1ccccc1OCC(=O)OCC(=O)Nc1cc(S(=O)(=O)N2CCCCC2)ccc1Cl,2.23
10,CCc1cc2c(SCc3ccc(C(=O)OC)o3)ncnc2s1,16
11,Cc1[nH]nc2c1C(c1ccccc1F)CC(=O)N2 (centres unmarked),-6.07
12,Cc1ccc(NC(=O)COc2ccc(-n3cnnn3)cc2)cc1C,9.71
13,COc1ccc(-n2nc([N+](=O)[O-])c(=NCCc3ccc(OC)c(OC)c3)n2O)cc1,2.49
14,Cn1nc(C(=O)OCC(=O)Nc2ccc(Cl)cc2Cl)c2ccccc2c1=O,4.9
15,COc1ccc(-c2nn(-c3ccccc3)cc2/C=C/C(=O)N2CCN(c3ccccn3)CC2)cc1,1.28
16,O=C(CN1C(=O)NC2(CCCC2)C1=O)OCc1cccc(Br)c1,-13.1
17,COc1ccc2nc(NC(=O)c3ccoc3C)sc2c1,14.4
18,COC(=O)c1ccc(-c2nc(CN3CCCN(C(=O)c4ccco4)CC3)c(C)o2)cc1,-41.4
